The source of these data is PubChem BioAssay AID1240 (Sanford-Burnham Center for Chemical Genomics, 2008).

In all, about 50,000 compounds went through this assay and about 800 (1.6%) showed an effect of 50% or more. The list shows a part of the results.

The target in this assay is Bcl-2-like protein 10 (Homo sapiens) (UniProt Q9HD36). In words: TR3 peptide-Bcl-B binding displacers, biochemical primary FP assay, phenotype converters (AID 1240).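 Further: 0% = Bcl-B with tracer peptide and DMSO and 100% = tracer peptide lacking Bcl-B.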 The following applies: GST-Bcl-B / FITC-TR3 peptide fluorescence polarization; stronger effect = higher value; compound at 3.75 mg/L. A general note: Fluorescence polarisation rises when a labelled molecule tumbles more slowly, as on binding a larger partner.
UniProt Q9HD36, sequence (Q9HD36 whole entry, looked up): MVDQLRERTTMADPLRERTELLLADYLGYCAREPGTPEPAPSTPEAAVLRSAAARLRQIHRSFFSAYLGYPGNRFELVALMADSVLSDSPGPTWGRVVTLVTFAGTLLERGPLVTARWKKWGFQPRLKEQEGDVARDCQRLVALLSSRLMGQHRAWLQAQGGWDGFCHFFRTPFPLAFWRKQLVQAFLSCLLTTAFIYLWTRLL
With `O=[N+]([O-])c1cc(S(=O)(=O)Nc2ccc(O)c(Br)c2)ccc1Cl`, the displacement was 11.1%.

For `CCOC(=O)c1c(NC(=O)/C=C/c2cccs2)sc2c1CCC2`, the displacement is 7%.

As to `CCOc1cc(/C=C2\SC(=S)N(C)C2=O)ccc1O`, the displacement was -6.7%.

Take `CCOC(=O)c1c(NC(=S)NC(=O)c2ccccc2)sc2c1CC(C)CC2` (stereo not drawn): the displacement was -9.6%.

Regarding `O=C(Nc1ccc(Br)cc1)c1nn2c(c1Cl)NC(c1ccccc1)CC2C(F)(F)F` (stereo not drawn), the displacement was -0.6%.

`N#C/C(=C\c1ccc(Sc2ccccc2)o1)c1ccccc1`: the displacement was -14.9%.

For the compound `CS(=O)(=O)N(CC(O)Cn1c2ccccc2c2ccccc21)c1ccc(Cl)cc1` (stereo not drawn), the displacement came out at 27.6%.

As to `CC(=O)N1c2ccc(C)cc2C2(c3ccccc3)N(C(C)=O)c3ccc(C)cc3C12c1ccccc1` (stereo not drawn), the displacement came to 13%.

Regarding `COc1ccccc1N1CCN(C(=O)c2ccc(OC)c([N+](=O)[O-])c2)CC1`, the displacement was -5.5%.

Consider `Cc1cc(NC(=O)CSc2nc3ccccc3o2)no1`, for which the displacement came to 13.1%.

`O=C(NC(=S)Nc1ccc(-c2nc3ccccc3[nH]2)cc1)c1ccco1`: the displacement came out at 12.1%.

Regarding `CCOC(=O)c1c(C)n(C)c2cc(Br)c(O)c(CN(C)C)c12`, the displacement is 14.7%.

`O=C(c1cc2nc(-c3ccc([N+](=O)[O-])cc3)cc(C(F)(F)F)n2n1)N1CCCc2ccccc21`: the displacement came out at 9.6%.

Take `CCOc1ccc(NC(=O)/C=C/c2ccc(Cl)cc2)cc1`: the displacement is 10.1%.

Consider `COc1ccc(C(=O)Nc2ccc(C(C)C)cc2)cc1[N+](=O)[O-]`, for which the displacement was determined as 8.5%.

For the compound `COc1ccc(OC)c(/C=C/C(=O)c2cccc(Br)c2)c1`, the displacement is -12%.

`COC(=O)/C=C1\Nc2cc([N+](=O)[O-])ccc2NC1=O`: the displacement was found to be 9.9%.

For the compound `COc1ccc(Br)cc1C(=O)Nc1ccccc1C(F)(F)F`, the displacement worked out at 37%.

For `Cc1nc2cc(-c3ccc(I)cc3)nn2c(C)c1Cl`, the displacement is -5.5%.

In the case of `O=C(O)/C(=N\O)c1cn2ccccc2n1`, the displacement came out at 7.2%.

Turning to `CC(C)c1ccc(CNc2cc(N3CCN(C(=O)c4ccc(Cl)cc4)CC3)ccc2[N+](=O)[O-])cc1`, the displacement was -10.8%.

As for `C=CCc1ccccc1OCCn1cc(C=C2C(=O)NC(=O)NC2=O)c2ccccc21`, the displacement is -6.7%.

For the compound `CC12CCC(C(=O)N(c3cccc(O)c3)C1=O)C2(C)C` (stereo not drawn), the displacement was 20.5%.

Consider `Cc1ccc(-c2csc(/C(C#N)=C/c3cccc4ccccc34)n2)cc1`, for which the displacement was 6.8%.

In the case of `O=C(CSc1nnc(CCCN2C(=O)c3cccc4cccc(c34)C2=O)n1-c1ccccc1)NCCCn1ccnc1`, the displacement was -1.9%.

Take `O=C(O)CCSc1nc2ccc(NC(=O)c3ccccc3)cc2s1`: the displacement turned out to be 3.1%.

As for `O=C(/C=C/c1ccccc1)N1CCN(c2ccccc2)CC1`, the displacement was -8.4%.

In the case of `Cc1cccc(N(CC(=O)O)S(C)(=O)=O)c1`, the displacement turned out to be 14.1%.

With `Cc1ccccc1OCC(=O)O/N=C(\N)Cc1ccc(Cl)cc1Cl`, the displacement was 1.1%.

With `CCOc1ccc(N2C(=O)CC(SC(=NC)Nc3ccc4c(c3)OCO4)C2=O)cc1` (stereo not drawn), the displacement was -6.7%.

For `Cc1onc(-c2ccccc2)c1C(=O)NCCCN1CCN(CCCNC(=O)c2c(-c3ccccc3)noc2C)CC1`, the displacement is -10.1%.

For `CC(C)=C1C(=O)NN(c2ccc(C)c(Cl)c2)C1=O`, the displacement was found to be 18.4%.

Turning to `CC(C(=O)O)N1C(=O)/C(=C/c2ccc(Cl)cc2Cl)SC1=S` (stereo not drawn), the displacement amounted to 9.1%.

Turning to `O=[N+]([O-])c1cccc(CNc2ccc3c(c2)CCC3)c1`, the displacement was determined as 7.4%.

`O=[N+]([O-])c1ccc(OCC(O)CN2CCOCC2)cc1` (stereo not drawn): the displacement is -4.8%.

On to `O=C(Nc1ccccc1C(=O)Nc1ccccc1Cl)c1ccncc1`, for which the displacement is -6.4%.

Consider `COc1ccc(/C=C(\C#N)C(=O)O)cc1`, for which the displacement was 6.5%.

As for `CCc1ccccc1NC(=O)C(=O)NCc1ccc(F)cc1`, the displacement came to 6.2%.

On to `CCOC(=O)c1c(Cl)cc(Cl)c(NC(C)=O)c1[N+](=O)[O-]`, for which the displacement stood at 0.4%.

Regarding `CCCC(C)NS(=O)(=O)c1ccc(C)cc1` (stereo not drawn), the displacement is 5.1%.

With `CCOC(=O)Oc1ccc2c3c(c(=O)oc2c1)CCC3`, the displacement was -1.2%.

As to `Cc1ccnc(N=Cc2ccc(C=Nc3cc(C)ccn3)cc2)c1`, the displacement was -2.9%.

Regarding `O=C(Nc1sc2c(c1C(=O)Nc1ccccc1)CCC2)c1ccccc1Br`, the displacement amounted to 4.8%.

With `Cc1ccc(S(=O)(=O)N2CCN(Cc3ccccc3)CC2)cc1[N+](=O)[O-]`, the displacement is 8.5%.

As for `COc1cccc(/C=C2/C=C(c3ccc(C)cc3)OC2=O)c1OC`, the displacement was 3.6%.

As to `CC(=O)Nc1ccc(NS(=O)(=O)c2ccc(F)cc2)cc1`, the displacement is -7.3%.

Take `CC(Oc1cccc(Cl)c1)C(=O)Nc1ccc([N+](=O)[O-])cc1Cl` (stereo not drawn): the displacement is -9.2%.

On to `CCOC(=O)c1ccc(NC(=O)COc2ccc(Cl)cc2Br)cc1`, for which the displacement was -16.3%.

In the case of `Cc1ccc(S(=O)(=O)N(CC(=O)N/N=C/c2ccc(F)cc2)c2cccc3cccnc23)cc1`, the displacement is -1.7%.

For `COCCCN1C(=O)C(=Cc2c(NCCc3ccccc3)nc3c(C)cccn3c2=O)SC1=S`, the displacement was -14.7%.

Regarding `COC(=O)C1=C(C)NC(=O)CC1c1ccc(Cl)c(Cl)c1` (stereo not drawn), the displacement worked out at 9.1%.

As to `Cc1ccc(C)n1-c1cccc2cccnc12`, the displacement worked out at 35.7%.

`Cc1ccc(/C=N/NC(=O)CN(c2cccc(C(F)(F)F)c2)S(=O)(=O)c2ccccc2)c(C)c1C`: the displacement was 4.5%.

Regarding `O=C1c2ccccc2C(=Nc2cc([N+](=O)[O-])ccc2O)C1c1ccc2ccccc2c1` (stereo not drawn), the displacement came to 1.2%.

Regarding `NS(=O)(=O)c1ccc(NC(=O)COc2ccc(Cl)cc2)cc1`, the displacement turned out to be 6.9%.

As to `CNS(=O)(=O)c1ccc(N/C=C(\C=O)c2nc3cc(Cl)ccc3o2)cc1`, the displacement was determined as 12.6%.

As to `COc1ccc(-n2c(C)c([N+](=O)[O-])c3ccc(O)c(CN(CCO)CCO)c32)cc1`, the displacement was 19.7%.

With `CC12c3ccccc3C(c3ccccc31)C1C(=O)N(c3ccc(I)cc3)C(=O)C12` (stereo not drawn), the displacement is -3.8%.

Take `O=c1oc2cc(OCc3c(F)cccc3Cl)ccc2cc1-c1ccccn1`: the displacement is 8.8%.

Regarding `O=C1NC(=S)S/C1=C/c1ccc(Sc2ccccc2)o1`, the displacement was -90%.

In the case of `COc1ccccc1C1NC(=O)CS1` (stereo not drawn), the displacement is -9.1%.

`C/C(=N\N1CCN(Cc2ccc(Cl)cc2)CC1)c1ccc(O)cc1`: the displacement was -6.9%.

In the case of `O=C(NN1C(=O)/C(=C/c2ccc(O)c(O)c2)SC1=S)c1ccccc1Br`, the displacement is 73%.

In the case of `COc1ccc(NCC(O)Cn2c3ccc(Br)cc3c3cc(Br)ccc32)c(OC)c1` (stereo not drawn), the displacement was found to be 5.9%.

Regarding `NC(=O)c1c(NC(=O)CCC2CCCCC2)sc2c1CCCCC2`, the displacement amounted to 20.7%.

For the compound `CCOc1cc(C(=O)Nc2cccc(NC(=O)c3ccco3)c2)cc(OCC)c1OCC`, the displacement is -9.4%.

For the compound `O=C(/C=C/c1ccccc1)N1CCC(Cc2ccccc2)CC1`, the displacement was -12.8%.

For `O=C(c1cccc(S(=O)(=O)N2CCCCC2)c1)N1CCCc2ccccc21`, the displacement is 5.7%.
